These results are taken from PubChem BioAssay AID1745853 (National Center for Advancing Translational Sciences (NCATS), 2022).

Holding throughout (test): Primary Screen for Target Class Profiling of Small Molecule Inhibitors of Methyltransferases
Assay [1] deals with Glycine N-methyltransferase (Homo sapiens) (UniProt Q14749). To be noted: purified enzyme, MTase-Glo SAH luminescence; measured here: GNMT inhibition; at 40 µM; stronger effect = lower value. The method in brief:
(§1)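 Each enzyme was assayed with SAM and its substrate. SAH formation detected by MTase-Glo luminescence; single-point 40 uM screen[…].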

Assay [2] deals with Guanidinoacetate N-methyltransferase (Homo sapiens) (UniProt Q14353). To be noted: purified enzyme, MTase-Glo SAH luminescence; measured here: GAMT inhibition; at 40 µM; stronger effect = lower value. An outline of the steps:
as §1

Assay [3] addresses Histamine N-methyltransferase (Homo sapiens) (UniProt P50135). To be noted: purified enzyme, MTase-Glo SAH luminescence; measured here: HNMT inhibition; at 40 µM; stronger effect = lower value. An outline of the steps: as §1
Assay [4] deals with Nicotinamide N-methyltransferase (Homo sapiens) (UniProt P40261). As to conditions: purified enzyme, MTase-Glo SAH luminescence; measured here: NNMT inhibition; at 40 µM; stronger effect = lower value. An outline of the steps: as §1
The target of assay [5] is Phenylethanolamine N-methyltransferase (Homo sapiens) (UniProt P11086). To be noted: purified enzyme, MTase-Glo SAH luminescence; measured here: PNMT inhibition; at 40 µM; stronger effect = lower value. The method in brief:
as §1

Structures are written as SMILES. Some of the results follow. Shown are side measurements of this screen, not its main read-out; they come without a call.
% is set by controls: 0 for no effect and ±100 for the full control effect.

Turning to `C=C(C)[C@@H]1CC[C@]2(C)CC[C@]3(C)C(CCC4[C@@]5(C)CC[C@H](O)C(C)(C)C5CC[C@]43C)C12` (stereo partly specified), the activity change, negative = inhibition in assay [1] is 3.53%; in assay [2], 2.06%; in assay [3] it was 10.7%; in assay [4] it was -1.99%; in assay [5], 6.89%.

On to `COc1cccc(C(c2sc3nc(-c4ccco4)nn3c2O)N2CCN(C)CC2)c1` (stereo unspecified), for which the activity change, negative = inhibition in assay [2] is 6.79%; in assay [4], -12.5%; in assay [5] it was -2.76%.

For the compound `COc1ccc(-c2nn(-c3ccccc3C)cc2CN2C[C@@H](C)O[C@@H](C)C2)cc1F`, the activity change, negative = inhibition in assay [1] was -0.766%; in assay [2] it was 1.46%; in assay [3], -0.224%; in assay [4] it was 5.35%; in assay [5], 0.183%.

On to `COCC1CN(C(=O)c2sccc2C)CC12CCOCC2` (stereo unspecified), for which the activity change, negative = inhibition in assay [1] is -5.28%; in assay [2], 0.59%; in assay [3], 0.867%; in assay [4], -0.854%; in assay [5], -0.523%.

`COc1cccc(N2C(=O)NC(=NC3CCCC3)C23CCCN(C(=O)c2ccc(C)cc2)C3)c1` (stereo unspecified): the activity change, negative = inhibition was -2.06% in assay [1]; 3.13% in assay [2]; 0.144% in assay [3]; 4.83% in assay [4]; 2.99% in assay [5].

`CCN(Cc1cccc2nonc12)CC1CCCN(CCc2cccc(OC)c2)C1` (stereo unspecified): the activity change, negative = inhibition in assay [1] was -6.46%; in assay [2], -6.22%; in assay [3], -34.7%; in assay [4] it was -14.6%; in assay [5], -14.2%.

Turning to `C#CCN(Cc1nc(-c2ccccc2OCC)oc1C)C1CCCCC1`, the activity change, negative = inhibition in assay [1] is -2.68%; in assay [2], -4.68%; in assay [3], -4.39%; in assay [4], -6.29%; in assay [5], -7.42%.

Consider `COc1ccc(NC(=O)CCc2nnc3n(Cc4ccc(C)cc4)c(=O)c4ccccc4n23)cc1`, for which the activity change, negative = inhibition in assay [1] is -7.75%; in assay [2], 4.25%; in assay [3] it was 1.7%; in assay [4], -7.34%; in assay [5] it was -3.17%.

Regarding `CNC(=O)c1cc2n(n1)CC(C)(C(=O)NC1CCCCCC1)N(C)C2=O` (stereo unspecified), the activity change, negative = inhibition in assay [1] worked out at 7.28%; in assay [2], 1.32%; in assay [3] it was 3.44%; in assay [4], 8.19%; in assay [5] it was 2.58%.

On to `COC(=O)C1=CN(CC(=O)NC(C)c2ccccc2)S(=O)(=O)N=C1C` (stereo unspecified), for which the activity change, negative = inhibition in assay [1] was -2.54%; in assay [2], -1.15%; in assay [3], 2.3%; in assay [4], -0.368%; in assay [5], -1.36%.

Turning to `CC(=O)N1c2ccc(S(=O)(=O)N3CCCC3)cc2CC1C(=O)NCc1c(C)nn(C)c1C` (stereo unspecified), the activity change, negative = inhibition in assay [1] is 0.927%; in assay [2] it was 0%; in assay [3], 7.65%; in assay [4] it was -1.32%; in assay [5] it was 1.35%.

Consider `O=C(O)[C@@H]1C[C@H]2C[C@@H](CCc3nn[nH]n3)CC[C@H]2CN1`, for which the activity change, negative = inhibition in assay [1] is -4.41%; in assay [2], -2.49%; in assay [3] it was 3.15%; in assay [4], -9.95%; in assay [5], -4.8%.

For `CC(C)NC(=O)c1ccc2c(=O)n(C)c3nn(CC(=O)Nc4ccccc4)c(=O)n3c2c1`, the activity change, negative = inhibition in assay [1] is 6.7%; in assay [2] it was 4.93%; in assay [3] it was 9.62%; in assay [4], 2.23%; in assay [5] it was 8.52%.

Take `COc1ccccc1CNC(=O)c1ccc2c(=O)n(-c3ccc(F)cc3)c3nnc(C)n3c2c1`: the activity change, negative = inhibition is -5.38% in assay [1]; 1.22% in assay [2]; 4.41% in assay [3]; 9.27% in assay [4]; 1.5% in assay [5].

In the case of `Cc1c(C)n(Cc2ccc(-c3ccccc3C(=O)O)cc2)c2ccc(C(=O)N[C@@H](C)c3ccc([N+](=O)[O-])cc3)cc12`, the activity change, negative = inhibition is -87% in assay [1]; -7.63% in assay [2]; -3.19% in assay [3]; -39.3% in assay [4]; -17.8% in assay [5].

As for `CCOC(=O)c1cc2n(n1)CC(C)(C(=O)NC1CCCCC1)N(c1ccc(C)cc1C)C2=O` (stereo unspecified), the activity change, negative = inhibition in assay [1] was -2%; in assay [2], -0.569%; in assay [3], -8.33%; in assay [4], 2.08%; in assay [5] it was -1.94%.

For the compound `CCOc1cc(N2CCC(O)CC2)ccc1Nc1ncc2c(n1)N(C1CCCC1)CCC(=O)N2C`, the activity change, negative = inhibition in assay [1] is -11.6%; in assay [2], -9.72%; in assay [3] it was 4%; in assay [4] it was -35.9%; in assay [5] it was -11.2%.

As for `FC(F)(F)c1ccccc1-c1cc(C(F)(F)F)c2nc(C3=NOC4(CCCCC4)C3)[nH]c2c1`, the activity change, negative = inhibition in assay [1] is 0.983%; in assay [2], -23.5%; in assay [3], -3.55%; in assay [4], -35.7%; in assay [5], -14.2%.

In the case of `CCOC(=O)c1cc2n(n1)CC(C)(C(=O)NCc1ccc(F)cc1)N(Cc1ccccc1OCC)C2=O` (stereo unspecified), the activity change, negative = inhibition in assay [1] is 4.95%; in assay [2], 0%; in assay [3], 9.58%; in assay [4], 12%; in assay [5], 6.83%.

As for `c1ccc2c(c1)CCCC2C1=NCCN1` (stereo unspecified), the activity change, negative = inhibition in assay [1] is 3.68%; in assay [2], 15.1%; in assay [3], -8.37%; in assay [4], -1.36%; in assay [5], 7.34%.

Turning to `O=C1O[C@H](C(O)CO)C(=O)C1=O` (stereo partly specified), the results for the activity change, negative = inhibition in assay [2], in assay [4] and in assay [5] were 4.42%, -4.23% and 3.9%, respectively.

As for `Cc1cn(CC(=O)N2CC[C@@](C)(O)[C@@H](Cc3ccccc3)C2)c(=O)[nH]c1=O`, the activity change, negative = inhibition is 1.51% in assay [1]; 1.24% in assay [2]; 3.38% in assay [3]; -1.43% in assay [4]; -0.269% in assay [5].

Take `O=S(=O)(c1ccc(Br)cc1)c1nnn2c1nc(NCCc1c[nH]c3ccccc13)c1ccccc12`: the activity change, negative = inhibition was 2.37% in assay [1]; 0% in assay [2]; -35.3% in assay [3]; -1.66% in assay [4]; -0.857% in assay [5].

For `COc1ccc2cc3n(c2c1)CC(C)(C(=O)NC1CCCCC1)N(Cc1cccs1)C3=O` (stereo unspecified), the activity change, negative = inhibition was 0.989% in assay [1]; 6.23% in assay [2]; 0.875% in assay [3]; -5.56% in assay [4]; -3.45% in assay [5].

With `Cc1nnnn1CCC(=O)Nc1nn(C)c2cccc(N3CCOCC3)c12`, the activity change, negative = inhibition in assay [1] is -8.64%; in assay [2], -9.86%; in assay [3], -4.49%; in assay [4], -11.1%; in assay [5], -12.5%.

As for `CNc1ncnc2c1ncn2[C@@H]1O[C@H](CO)[C@@H](O)[C@H]1O`, the activity change, negative = inhibition in assay [1] stood at 88%; in assay [2] it was 321%; in assay [3], 43.3%; in assay [4], 214%; in assay [5], 50.7%.

As to `C/C=C(/COC(=O)/C(C)=C/C)C(=O)OC/C=C/c1ccc(OC)cc1`, the activity change, negative = inhibition in assay [1] is -2.33%; in assay [2], -2.8%; in assay [3], 5.4%; in assay [4], -15.8%; in assay [5], -0.846%.

On to `C=C[C@]1(C)C[C@@H](OC(=O)CSC2C[C@H]3CC[C@@H](C2)N3C)[C@]2(C)[C@H](C)CC[C@]3(CCC(=O)[C@H]32)[C@@H](C)[C@@H]1O` (stereo partly specified), for which the activity change, negative = inhibition in assay [1] was -6.39%; in assay [2] it was 3.15%; in assay [3] it was -17.9%; in assay [4], -14.2%; in assay [5] it was 1.39%.

With `CC1(C(=O)NCc2ccc(F)cc2)Cn2cnc(C(=O)NCCCc3ccccc3)c2C(=O)N1C1CC1` (stereo unspecified), the activity change, negative = inhibition in assay [1] was -13.6%; in assay [2] it was -5%; in assay [3], -14.1%; in assay [4], -9.93%; in assay [5] it was -10%.
